From the antibiotic and cytotoxicity screens of Wong et al. (2023)
The other results are listed elsewhere or left out.

Legend:
HSkMC = human skeletal muscle cells; test: cytotoxicity call (relative viability < 0.9); details: 10 µM
HepG2 = test: cytotoxicity call (relative viability < 0.9); details: 10 µM
S. aureus RN4220 = test: growth inhibition call (relative growth <= 0.2); details: 50 µM

| Structure (SMILES) | cytotoxicity call (HSkMC) | cytotoxicity call (HepG2) | growth inhibition call (S. aureus RN4220) |
| --- | --- | --- | --- |
| COc1ccccc1C#Cc1cnc2c(c1)C(=O)N([C@H](C)CO)C[C@H](C)[C@@H](CN(C)S(=O)(=O)c1cn(C)cn1)O2 | inactive | inactive | inactive |
| C[C@@H]1CN([C@H](C)CO)C(=O)Cc2cc(NC(=O)NC3CCCCC3)ccc2O[C@H]1CN(C)Cc1ccc(-c2ccccc2)cc1 | inactive | active | inactive |
| Cc1noc(C)c1NC(=O)Nc1ccc2c(c1)CC(=O)N([C@@H](C)CO)C[C@@H](C)[C@@H](CN(C)S(=O)(=O)c1ccccc1)O2 | inactive | inactive | inactive |
| CC(C)NC(=O)Nc1ccc2c(c1)CC(=O)N([C@@H](C)CO)C[C@H](C)[C@@H](CN(C)Cc1ccc(Oc3ccccc3)cc1)O2 | inactive | inactive | inactive |
| COc1ccc(NC(=O)Nc2cccc3c2O[C@H](CN(C)C(=O)Nc2ccc(C(F)(F)F)cc2)[C@@H](C)CN([C@H](C)CO)C3=O)cc1 | inactive | inactive | inactive |
| C[C@@H]1CN([C@H](C)CO)S(=O)(=O)c2ccc(C#Cc3ccccc3)cc2O[C@H]1CN(C)S(=O)(=O)c1ccccc1F | inactive | inactive | inactive |
| C[C@H](CO)N1C[C@H](C)[C@@H](CN(C)S(=O)(=O)c2ccccc2C#N)OCc2cn(nn2)CCCC1=O | inactive | inactive | inactive |
| C[C@H]1CN([C@@H](C)CO)C(=O)c2cccc(NC(=O)C3CCCCC3)c2O[C@H]1CN(C)Cc1ccc(C(=O)Nc2ccccc2N)cc1 | inactive | active | inactive |
| C[C@@H]1CN([C@H](C)CO)S(=O)(=O)c2ccc(C#CCN(C)C)cc2O[C@H]1CN(C)Cc1ccccn1 | inactive | inactive | inactive |
| Cc1cc(C)c(C(=O)O)c(=O)[nH]1 | inactive | inactive | inactive |
| C[C@H]1CN([C@@H](C)CO)C(=O)c2cc(NC(=O)Nc3ccc4c(c3)OCO4)ccc2O[C@@H]1CN(C)Cc1ccc(Oc2ccccc2)cc1 | inactive | active | inactive |
| C[C@H]1CN([C@@H](C)CO)C(=O)c2cccc(NS(=O)(=O)c3cn(C)cn3)c2O[C@H]1CN(C)CC1CC1 | inactive | inactive | inactive |
| C[C@H](CO)N1C[C@H](C)[C@@H](CN(C)Cc2ccc(Oc3ccccc3)cc2)Oc2c(NS(=O)(=O)c3ccccc3)cccc2C1=O | inactive | inactive | inactive |
| COC12C(COC(N)=O)C3=C(C(=O)C(C)=C(N)C3=O)N1CC1NC12 (configuration not stated) | inactive | active | active |
| COCCOC(=O)N1C(=O)[C@@]2(c3cc(C#CCC(C(=O)OC)C(=O)OC)ccc31)[C@H](c1ccc(OCCO)cc1)N1[C@H](c3ccccc3)[C@H](c3ccccc3)OC(=O)[C@H]1[C@@H]2C(=O)N1CCc2cc(OC)c(OC)cc2C1 | inactive | inactive | inactive |
| C[C@@H]1CCCCO[C@H](CN(C)Cc2ccc(Cl)c(Cl)c2)[C@@H](C)CN([C@H](C)CO)C(=O)c2cc(NS(=O)(=O)c3ccccc3)ccc2O1 | inactive | inactive | inactive |
| C[C@H](CO)N1C[C@H](C)[C@H](CN(C)S(C)(=O)=O)Oc2ccc(NC(=O)NC3CCCCC3)cc2C1=O | inactive | inactive | inactive |
| COc1ccc(S(=O)(=O)Nc2ccc3c(c2)C(=O)N([C@@H](C)CO)C[C@H](C)[C@H](CN(C)C(=O)CCC(F)(F)F)OCCCC[C@@H](C)O3)cc1 | inactive | inactive | inactive |
| COc1ccc([Si](C)(C)[C@H]2[C@H](CCn3cc([C@H](O)c4ccccc4)nn3)O[C@@]3(C(=O)N(Cc4ccc(N5CCC5=O)cc4)c4ccccc43)[C@@H]2C)cc1 | inactive | inactive | inactive |
| Cn1cncc1[C@@](N)(c1ccc(Cl)cc1)c1ccc2c(c1)c(-c1cccc(Cl)c1)cc(=O)n2C | inactive | active | active |
| C[C@H]1CN([C@@H](C)CO)C(=O)Cc2cc(NC(=O)CCC(F)(F)F)ccc2O[C@H]1CN(C)C(=O)Nc1ccc(C(F)(F)F)cc1 | inactive | inactive | inactive |
| Cc1noc(C)c1NC(=O)Nc1cccc2c1O[C@@H](CN(C)Cc1ccc(-c3ccccc3)cc1)[C@H](C)CN([C@H](C)CO)C2=O | inactive | inactive | inactive |
| C[C@H]1CN([C@@H](C)CO)C(=O)c2cc(C#Cc3cccc(F)c3)cnc2O[C@H]1CN(C)C(=O)C1CCOCC1 | inactive | inactive | inactive |
| O=C(Nc1ccc(C(F)(F)F)cc1)Nc1ccc2c(c1)[C@H]1C[C@@H](CC(=O)N3CCc4ccccc4C3)O[C@@H](CO)[C@H]1O2 | inactive | inactive | inactive |
